# Results from the supplement of paper PMC8728848.
# This is one part of the list.
# B1: PNGase F (Flavobacterium meningosepticum) (protein)
# chain: GIPAPADNTVNIKTFDKVKNAFGDGLSQSAEGTFTFPADVTAVKTIKMFIKNECPNKTCDEWDRYANVYVKNKTTGEWYEIGRFITPYWVGTEKLPRGLEIDVTDFKSLLSGNTELKIYTETWLAKGREYSVDFDIVYGTPDYKYSAVVPVVQYNKSSIDGVPYGKAHTLALKKNIQLPTNTEKAYLRTTISGWGHAKPYDAGSRGCAEWCFRTHTIAINNSNTFQHQLGALGCSANPINNQSPGNWTPDRAGWCPGMAVPTRIDVLNNSLIGSTFSYEYKFQNWTNNGTNGDAFYAISSFVIAKSNTPISAPVVTNLDPHHHHHH
# What was measured:
# Test in all cases: glycan array binding signal (z-score within array); higher = stronger binding
# Details in all cases: glycan notation: IUPAC condensed, linker removed
# [1] = target: Neu5Ac(a2-3)Gal(b1-3)GlcNAc6S
# In short: (§1)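 Arrays were curated from the Consortium for Functional Glycomics database, 3228 in total, and kept only where the protein sequence was available. Binding is expressed as a within-array Z-score. This score was averaged across arrays of the same protein sequence at different concentrations or buffers and across linkers, and negative values can be read as non-binding.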
# [2] = target: Neu5Ac(a2-3)Gal(b1-3)[Fuc(a1-4)]GlcNAc
# In short: as §1
# [3] = target: Neu5Ac(a2-3)Gal(b1-3)[Fuc(a1-4)]GlcNAc(b1-3)Gal(b1-3)[Fuc(a1-4)]GlcNAc
# In short: as §1
# [4] = target: Neu5Ac(a2-3)Gal(b1-3)[Fuc(a1-4)]GlcNAc(b1-3)Gal(b1-4)[Fuc(a1-3)]GlcNAc
# In short: as §1
# [5] = target: Neu5Ac(a2-3)Gal(b1-3)[GlcNAc(b1-6)]GalNAc
# In short: as §1
# [6] = target: Neu5Ac(a2-3)Gal(b1-3)[Neu5Ac(a2-6)]GalNAc
# In short: as §1
# [7] = target: Neu5Ac(a2-3)Gal(b1-3)[Neu5Ac(a2-6)]GlcNAc(b1-3)[Fuc(a1-3)[Gal(b1-4)]GlcNAc(b1-6)]Gal(b1-4)Glc
# In short: as §1
# [8] = target: Neu5Ac(a2-3)Gal(b1-3)]Neu5Ac(a2-3)Gal(b1-4)]GlcNAc
# In short: as §1
# [9] = target: Neu5Ac(a2-3)Gal(b1-4)Glc
# In short: as §1
# [10] = target: Neu5Ac(a2-3)Gal(b1-4)GlcNAc
# In short: as §1
# [11] = target: Neu5Ac(a2-3)Gal(b1-4)GlcNAc(b1-2)Man
# In short: as §1
# [12] = target: Neu5Ac(a2-3)Gal(b1-4)GlcNAc(b1-2)Man(a1-3)[GlcNAc(b1-4)][Neu5Ac(a2-3)Gal(b1-4)GlcNAc(b1-2)Man(a1-6)]Man(b1-4)GlcNAc(b1-4)GlcNAc
# In short: as §1
# [13] = target: Neu5Ac(a2-3)Gal(b1-4)GlcNAc(b1-2)Man(a1-3)[Neu5Ac(a2-3)Gal(b1-4)GlcNAc(b1-2)Man(a1-6)]Man(b1-4)GlcNAc(b1-4)GlcNAc
# In short: as §1
# [14] = target: Neu5Ac(a2-3)Gal(b1-4)GlcNAc(b1-2)Man(a1-3)[Neu5Ac(a2-3)Gal(b1-4)GlcNAc(b1-2)Man(a1-6)]Man(b1-4)GlcNAc(b1-4)[Fuc(a1-6)]GlcNAc
# In short: as §1
# [15] = target: Neu5Ac(a2-3)Gal(b1-4)GlcNAc(b1-2)Man(a1-3)[Neu5Ac(a2-6)Gal(b1-4)GlcNAc(b1-2)Man(a1-6)]Man(b1-4)GlcNAc(b1-4)GlcNAc
# In short: as §1
# [16] = target: Neu5Ac(a2-3)Gal(b1-4)GlcNAc(b1-2)[Neu5Ac(a2-3)Gal(b1-4)GlcNAc(b1-4)]Man(a1-3)[GlcNAc(b1-4)][Neu5Ac(a2-3)Gal(b1-4)GlcNAc(b1-2)[Neu5Ac(a2-3)Gal(b1-4)GlcNAc(b1-6)]Man(a1-6)]Man(b1-4)GlcNAc(b1-4)GlcNAc
# In short: as §1
# [17] = target: Neu5Ac(a2-3)Gal(b1-4)GlcNAc(b1-2)[Neu5Ac(a2-3)Gal(b1-4)GlcNAc(b1-4)]Man(a1-3)[GlcNAc(b1-4)][Neu5Ac(a2-3)Gal(b1-4)GlcNAc(b1-4)Man(a1-6)]Man(b1-4)GlcNAc(b1-4)GlcNAc
# In short: as §1
# [18] = target: Neu5Ac(a2-3)Gal(b1-4)GlcNAc(b1-2)[Neu5Ac(a2-3)Gal(b1-4)GlcNAc(b1-6)]Man(a1-6)[Neu5Ac(a2-3)Gal(b1-4)GlcNAc(b1-2)Man(a1-3)][GlcNAc(b1-4)]Man(b1-4)GlcNAc(b1-4)GlcNAc
# In short: as §1
# [19] = target: Neu5Ac(a2-3)Gal(b1-4)GlcNAc(b1-3)Gal
# In short: as §1
# [20] = target: Neu5Ac(a2-3)Gal(b1-4)GlcNAc(b1-3)Gal(b1-3)GlcNAc
# In short: as §1
# [21] = target: Neu5Ac(a2-3)Gal(b1-4)GlcNAc(b1-3)Gal(b1-4)GlcNAc
# In short: as §1
# [22] = target: Neu5Ac(a2-3)Gal(b1-4)GlcNAc(b1-3)Gal(b1-4)GlcNAc(b1-2)Man(a1-3)[Neu5Ac(a2-3)Gal(b1-4)GlcNAc(b1-3)Gal(b1-4)GlcNAc(b1-2)Man(a1-6)]Man(b1-4)GlcNAc(b1-4)GlcNAc
# In short: as §1
# [23] = target: Neu5Ac(a2-3)Gal(b1-4)GlcNAc(b1-3)Gal(b1-4)GlcNAc(b1-3)Gal(b1-4)GlcNAc
# In short: as §1
# [24] = target: Neu5Ac(a2-3)Gal(b1-4)GlcNAc(b1-3)Gal(b1-4)GlcNAc(b1-3)Gal(b1-4)GlcNAc(b1-2)Man(a1-3)[Neu5Ac(a2-3)Gal(b1-4)GlcNAc(b1-3)Gal(b1-4)GlcNAc(b1-3)Gal(b1-4)GlcNAc(b1-2)Man(a1-6)]GalNAc
# In short: as §1
# [25] = target: Neu5Ac(a2-3)Gal(b1-4)GlcNAc(b1-3)Gal(b1-4)GlcNAc(b1-3)GalNAc
# In short: as §1
# [26] = target: Neu5Ac(a2-3)Gal(b1-4)GlcNAc(b1-3)Gal(b1-4)GlcNAc(b1-3)[Neu5Ac(a2-3)Gal(b1-4)GlcNAc(b1-3)Gal(b1-4)GlcNAc(b1-6)]GalNAc
# In short: as §1
# [27] = target: Neu5Ac(a2-3)Gal(b1-4)GlcNAc(b1-3)Gal(b1-4)GlcNAc(b1-6)[Gal(b1-3)]GalNAc
# In short: as §1
# [28] = target: Neu5Ac(a2-3)Gal(b1-4)GlcNAc(b1-3)Gal(b1-4)[Fuc(a1-3)]GlcNAc
# In short: as §1
# [29] = target: Neu5Ac(a2-3)Gal(b1-4)GlcNAc(b1-3)GalNAc
# In short: as §1
# [30] = target: Neu5Ac(a2-3)Gal(b1-4)GlcNAc(b1-3)[Neu5Ac(a2-3)Gal(b1-4)GlcNAc(b1-6)]GalNAc
# In short: as §1
binder,measurement,setting,value
B1,glycan array binding signal (z-score),[1],-0.02
same,glycan array binding signal (z-score),[2],-0.341
same,glycan array binding signal (z-score),[3],-0.194
same,glycan array binding signal (z-score),[4],-0.214
same,glycan array binding signal (z-score),[5],-0.292
same,glycan array binding signal (z-score),[6],-0.211
same,glycan array binding signal (z-score),[7],-0.245
same,glycan array binding signal (z-score),[8],-0.394
same,glycan array binding signal (z-score),[9],2.16
same,glycan array binding signal (z-score),[10],-0.336
same,glycan array binding signal (z-score),[11],1.19
same,glycan array binding signal (z-score),[12],-0.348
same,glycan array binding signal (z-score),[13],-0.403
same,glycan array binding signal (z-score),[14],-0.373
same,glycan array binding signal (z-score),[15],0.076
same,glycan array binding signal (z-score),[16],-0.348
same,glycan array binding signal (z-score),[17],-0.969
same,glycan array binding signal (z-score),[18],-0.346
same,glycan array binding signal (z-score),[19],-0.384
same,glycan array binding signal (z-score),[20],-0.394
same,glycan array binding signal (z-score),[21],-0.398
same,glycan array binding signal (z-score),[22],-0.06
same,glycan array binding signal (z-score),[23],-0.395
same,glycan array binding signal (z-score),[24],-0.01
same,glycan array binding signal (z-score),[25],-0.352
same,glycan array binding signal (z-score),[26],-0.043
same,glycan array binding signal (z-score),[27],-0.313
same,glycan array binding signal (z-score),[28],-0.37
same,glycan array binding signal (z-score),[29],-0.277
same,glycan array binding signal (z-score),[30],-0.225
